Measurements taken from PubChem BioAssay AID1159614 (National Center for Advancing Translational Sciences (NCATS), 2016).
The whole screen tested about 45,000 compounds, of which about 65 (0.1%) were called active. The call rests on the fitted dose curve; in most records, active means well fitted activation curve with a large enough effect; inconclusive means small, poorly fitted or top-dose-only effect; inactive means no such curve, though single readings can be large or run the other way. The list shows a part of the results.

Molecular target: Galactocerebrosidase (Homo sapiens) (UniProt P54803)
Assay: A Novel Cell-Based Assay to Identify Small Molecules for B -Galactocerebrosidase; further: 0% is about no effect; nearly all actives have a fitted effect of over 65% in size
Settings: 145M-Twi-hGALC-G270D cells (Twitcher mouse brain line with human GALC G270D), HMU-beta-Gal fluorescence, 48 h; series mostly up to 57.5 µM; activation: at the top concentration
How it was run: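 Live 145M-Twi cells (Twitcher mouse brain-derived, GALC-null) stably expressing human GALC-G270D, with a wild-type GALC line, were compound-treated. Residual GALC activity was then read as fluorescence from 0.1 mM final HMU-β-gal at pH 5.2; higher signal means activation.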

Chain of UniProt P54803 (P54803 whole entry, looked up): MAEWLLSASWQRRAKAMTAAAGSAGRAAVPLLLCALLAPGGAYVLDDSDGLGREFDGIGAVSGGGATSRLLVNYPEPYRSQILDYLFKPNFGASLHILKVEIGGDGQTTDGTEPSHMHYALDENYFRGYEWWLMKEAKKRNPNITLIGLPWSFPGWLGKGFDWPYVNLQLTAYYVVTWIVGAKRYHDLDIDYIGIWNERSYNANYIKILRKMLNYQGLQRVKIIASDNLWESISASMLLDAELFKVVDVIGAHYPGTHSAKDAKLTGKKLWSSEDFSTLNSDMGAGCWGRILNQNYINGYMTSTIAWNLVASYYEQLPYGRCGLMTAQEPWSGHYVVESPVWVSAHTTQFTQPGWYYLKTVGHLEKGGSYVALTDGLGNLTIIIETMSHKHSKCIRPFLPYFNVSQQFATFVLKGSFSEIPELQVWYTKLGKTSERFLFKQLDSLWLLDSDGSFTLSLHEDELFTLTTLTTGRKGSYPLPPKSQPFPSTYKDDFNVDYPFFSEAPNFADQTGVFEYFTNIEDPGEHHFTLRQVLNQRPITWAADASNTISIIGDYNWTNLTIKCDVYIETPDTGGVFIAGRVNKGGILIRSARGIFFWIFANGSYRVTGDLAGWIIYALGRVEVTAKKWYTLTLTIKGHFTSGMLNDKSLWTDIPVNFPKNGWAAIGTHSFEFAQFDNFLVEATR

activation, inactive:
CCCS(=O)(=O)c1c(S(=O)(=O)CCC)c2cc(CC)ccn2c1C(=O)c1ccc(OC)cc1 -11.3%
Cc1ccc2nc(NC(=O)CSc3nccn3Cc3ccc(Cl)cc3)sc2c1 -1.58%
O=C(CCc1nc(-c2cccs2)no1)Nc1ccccc1[N+](=O)[O-] -10.4%
O=C(Cn1c(=O)n(Cc2ccccc2)c(=O)c2sc3ccccc3c21)NCc1ccccc1Cl -10.9%
O=C(NC1CC(=O)N(c2cccc(F)c2)C1)c1ccc(S(=O)(=O)N2CCCC2)cc1 (configuration not stated) -11.2%
Cc1ccn2c(=O)c(C(=O)NCCc3ccccc3)c(O)nc2c1 -16.2%
Cc1cccc(NC(=O)c2cc(S(=O)(=O)N3CCc4ccccc43)ccc2F)c1C -9.02%
O=C(Nc1cccc(Cl)c1)N1CCSc2ccccc21 -4.22%
CSc1ccc(CCNC(=O)c2cnn(-c3ccccc3)c2-n2cccc2)cc1 12.8%
CCN(CC)c1cc(C)c2cc(NC(=O)c3cccc(F)c3)ccc2n1 -11.8%
CC(NC(=O)CCCC1=NS(=O)(=O)c2ccccc2N1)c1ccccc1 (configuration not stated) -14.5%
CCOc1ccccc1NC(=O)c1c(NC(=O)COc2ccccc2)sc2c1CCCCC2 -6.79%
Cc1ccc(N2C(=O)CSC23C(=O)N(CC(=O)NCCc2ccccc2)c2ccccc23)cc1C (configuration not stated) -17.1%
CCCn1cc(S(=O)(=O)c2ccccc2)c(=O)c2cc(F)c(N3CCCCC3)cc21 -13.4%
COc1ccc(N2CCN(C(=O)C3CCCN(S(=O)(=O)c4ccc5c(c4)CCCN5C(C)=O)C3)CC2)cc1 (configuration not stated) -8.99%
COCCCNC(=O)CS(=O)Cc1nc(-c2cccc(C)c2)oc1C (configuration not stated) -10.1%
COc1ccc(OC)c(-c2cc(C(=O)NCCc3ccccc3)c3c(-c4ccc(C)cc4)[nH]nc3n2)c1 6.51%
CCOC(=O)c1cnc2c(ccc3ccccc32)c1Nc1ccccc1OCC -8.33%
Cc1ccc(NC(=O)C2CCN(c3nc4ccccc4nc3C(F)(F)F)CC2)cc1F -19.3%
CCOC(=O)c1cc(-c2ccccc2)n(-c2cccc(C(=O)Nc3cccc(F)c3)c2)c1C -11.4%
CCC(C)n1c(=N)c(C(=O)NCc2ccccc2)cc2c(=O)n3cc(C)ccc3nc21 (configuration not stated) -16%
COc1ccc(C(=O)Nc2nnc(S(=O)(=O)N3CCCCCC3)s2)cc1OC -7.55%
COc1ccc(CCNC(=O)c2sc3nc4n(c(=O)c3c2C)CCCC4)cc1OC -9.97%
CCc1cccc(C)c1NC(=O)CC1Oc2ccc(C)cc2NC1=O (configuration not stated) -6.06%
Cc1ccc(CNC(=O)CCc2c(C)nc3c(c(C)nn3-c3ccccc3)c2C)cc1 -2.15%
COc1ccc(C(=O)c2oc3ccccc3c2NC(=O)COc2ccccc2)cc1 -17.6%
CCN(CC)C(=O)/C(C#N)=C/c1cc(O)c(O)c([N+](=O)[O-])c1 -11.8%
